Test results reported in PubChem BioAssay AID2060507 (Molecular Pharmacology Branch, DTP, NCI, 2025).
A number of entries come with more than one value. They are shown here; other results are not. The source may hold further records. The records of an entry are repeats across runs, samples, wells, individuals or studies.

Test system: 519858-162-T-J1-PDC complex spheroid viability
Assay: Anticancer human tumor 519858-162-T-J1-PDC patient-derived colon adenocarcinoma cell line growth inhibition [GQUAD]
Conditions: for viability, T/C: stronger effect = lower value
Source text: DNA G-quadruplex Stabilizer Agents in Combinations in Complex Spheroids
A high-throughput screen of multi-cell type tumor spheroids was designed to identify active combinations of DNA G-quadruplex stabilizer agents and targeted small molecules. Complex spheroids include a stromal component modeled by human endothelial cells (HUVEC) and fibroblasts modeled by human mesenchymal stem cells (MSCs). The concentration ranges selected for each drug and investigational agent were based upon clinically achievable concentrations if the clinical Cmax of the agent was known.
Compounds. The drugs and investigational agents: pidnarulex (CX-5461; NSC782164), APTO-253 (NSC789042), BRACO-19 (NSC847499), peposertib (NSC802822), ceralasertib (NSC780249), elimusertib (NSC800525), camonsertib (NSC841442), AZD-1390 (NSC803789), olaparib (NSC753686), talazoparib (NSC767125), ART-558 (NSC835418), sotorasib (NSC818433), MRTX-1133 (NSC836407), SN-38 (NSC673596), topotecan (NSC609699), etoposide (NSC141540), doxorubicin (NSC123127), gemcitabine (NSC613327), 5-fluorouracil (NSC19893), paclitaxel (NSC125973), vemurafenib (NSC761431), panobinostat (NSC761190), R-306465 (JNJ-16241199; NSC773264), adavosertib (NSC754352), TP-3654 (NSC805149), carboplatin (NSC241240), KSQ-4279 (NSC840948), and staurosporine (NSC755774) were obtained from the National Cancer Institute (NCI) Developmental Therapeutics Program Chemical Repository (34). The FDA-approved anticancer drug set is available from the NCI Developmental Therapeutics Program. […] The stock solutions were prepared in dimethyl sulfoxide (DMSO, Sigma-Aldrich, St. Louis, MO, cat. D2650) at 800-fold the tested concentration and stored at -70 degrees C prior to their use. All drugs and investigational agents were tested over a range starting from a high concentration at or near the clinical Cmax and decreasing in half-log increments. If the clinical Cmax for an agent had not been determined, the highest concentration tested was 10 microM.
2.3 Cell Culture. All cells were maintained in an incubator at 37 degrees C and 5% CO2 with 95% humidity. The PDC lines were cultured according to standard operating procedures established by the NCI PDMR. All PDCs were thawed and cultured in Matrigel-coated flasks prepared with a working solution of 1X Ham's F-12 nutrient mix, without supplementation (Invitrogen, cat. 11765054), 100 U/mL penicillin-streptomycin (Invitrogen, cat. 15140122), and 2.5% Matrigel (Corning Inc., cat. 354248) for the first three passages. The 857933-349-R-J2-PDC line was cultured in 6C/Colon 1B media, which includes advanced DMEM/F-12 (Thermo Fisher Scientific, cat. 12634028), 10 mM HEPES (Thermo Fisher Scientific, cat. 15630080), 1X GlutaMAX supplement (Thermo Fisher Scientific, cat. 35050061), 0.1 mg/mL primocin (InvivoGen, cat. ant-pm-2), 10% defined fetal bovine serum, heat inactivated (HyClone Laboratories Inc., cat. SH30070.03HI), 50% L-WRN conditioned media (ATCC, cat. CRL-3276), 1.25 mM N-Acetyl-L-cysteine (Sigma-Aldrich, cat. A9165), 10 mM nicotinamide (Sigma-Aldrich, cat. N0636), 1X B-27 supplement (Thermo Fisher Scientific, cat. 17504044), 1X N-2 supplement (Thermo Fisher Scientific, cat. 17502048), 10 microM Y-27632 dihydrochloride (Tocris Bioscience, cat. 1254), and 50 ng/mL human EGF recombinant protein (Thermo Fisher Scientific, cat. PHG0311). The 485176-168-R4-J1-PDC line was cultured in Panc media, which includes all 6C/Colon 1B media components plus 100 ng/mL human FGF-10 (Thermo Fisher Scientific, cat. 100-26), 500 nM SB-431542 (Selleckchem, cat. S1067), and gastrin (Tocris, cat. 3006).
[…]
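Further: spheroids exposed to compounds for 7 days.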
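Wherever viability, T/C is given: 100% = DMSO vehicle control viability.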

`Cc1[nH]c2ccc(F)cc2c1-c1nc2c3cccnc3c3ncccc3c2[nH]1` was tested, and the viability, T/C (compound alone 0.0316 µM) was 72.8, 82.8, 86.1, 87.8, 80.1, 66.5, 92.8, 81.8, 87.6%, the viability, T/C (compound alone 1 µM) was 92.5, 125, 115, 108, 85.8, 89.4, 67.5, 80.4, 84% and the viability, T/C (compound alone 3.16 µM) was 75.4, 96.3, 79.2, 60.5, 69.2, 97.4, 83.5, 63.6, 67.1%. For the same compound, the viability, T/C (compound alone 10 µM) was 46.9, 66.9, 58, 57.1, 48.6, 77.5, 88.7, 68.1, 70.3%.
With `Cc1cnc(CNC(=O)c2c(=O)c3ccc(N4CCCN(C)CC4)nc3n3c2sc2ccccc23)cn1` the viability, T/C (compound alone 0.0316 µM) was 92.6, 68.2, 71.8, 86.9, 81.6, 73.3, 100, 89, 66.9, 102%, the viability, T/C (compound alone 0.1 µM) was 91.8, 82.5, 85, 71.4, 95.8, 66.8, 83.9, 65.9, 78.7, 84.2% and the viability, T/C (compound alone 0.316 µM) was 55.5, 73.9, 77.7, 59.8, 70.6, 60.1, 72.9, 83.5, 76.7, 82.2%. The viability, T/C (compound alone 3.16 µM) was 61.5, 77.6, 79.6, 40.8, 53.6, 70.2, 65.3, 65.5, 58.2, 56.5% and the IC50 (compound alone, run of 02/20/2024) was > 10 µM, 7.62 µM, 9.76 µM, 4.08 µM, 5.43 µM.
`CN(C)c1ccc(Nc2c3ccc(NC(=O)CCN4CCCC4)cc3nc3cc(NC(=O)CCN4CCCC4)ccc23)cc1` was tested, and the viability, T/C (compound alone 0.1 µM) was 69.3, 94, 84.4, 71.2, 102, 84.6, 117%, the viability, T/C (compound alone 0.316 µM) was 69.5, 93.4, 78.6, 81, 99, 89.7, 86.1% and the viability, T/C (compound alone 1 µM) was 85.8, 70.8, 60.7, 86.7, 94.9, 82.1, 101%. For the same compound, the viability, T/C (compound alone 3.16 µM) was 81.9, 73.8, 86.3, 58.8, 74.8, 71.2, 72.8%.
